Results taken from US20250205344A1, “2,4-DIOXOTETRAHYDROPYRIMIDINYL DERATIVES AS DEGRONS IN PROTACS” (GLAXOSMITHKLINE INTELLECTUAL PROPERTY DEVELOPMENT LIMITED, priority 2022, published 2025).
Counter-ions that a name gives are not always drawn. Some entries share one result that the patent states for a list of compounds. For some of these results: The name of at least one read-out is uncertain.

Tests used:
[1] = molecular target: T1, Androgen Receptor dual T878A/L702H mutant protein (Homo sapiens, UniProt P10275, L702H/T878A); assay: Dual Mutant (T878A/L702H) Androgen Receptor Degradation Assay (HTRF); assay type: cell-based; conditions: human MDA PCa 2b cells, 18 h
T1 construct: Androgen Receptor dual T878A/L702H mutant protein in human MDA PCa 2b (ATCC, #CRL-2422) cells; host or cells: MDA PCa 2b
T1 sequence (P10275 1-920 L702H/T878A): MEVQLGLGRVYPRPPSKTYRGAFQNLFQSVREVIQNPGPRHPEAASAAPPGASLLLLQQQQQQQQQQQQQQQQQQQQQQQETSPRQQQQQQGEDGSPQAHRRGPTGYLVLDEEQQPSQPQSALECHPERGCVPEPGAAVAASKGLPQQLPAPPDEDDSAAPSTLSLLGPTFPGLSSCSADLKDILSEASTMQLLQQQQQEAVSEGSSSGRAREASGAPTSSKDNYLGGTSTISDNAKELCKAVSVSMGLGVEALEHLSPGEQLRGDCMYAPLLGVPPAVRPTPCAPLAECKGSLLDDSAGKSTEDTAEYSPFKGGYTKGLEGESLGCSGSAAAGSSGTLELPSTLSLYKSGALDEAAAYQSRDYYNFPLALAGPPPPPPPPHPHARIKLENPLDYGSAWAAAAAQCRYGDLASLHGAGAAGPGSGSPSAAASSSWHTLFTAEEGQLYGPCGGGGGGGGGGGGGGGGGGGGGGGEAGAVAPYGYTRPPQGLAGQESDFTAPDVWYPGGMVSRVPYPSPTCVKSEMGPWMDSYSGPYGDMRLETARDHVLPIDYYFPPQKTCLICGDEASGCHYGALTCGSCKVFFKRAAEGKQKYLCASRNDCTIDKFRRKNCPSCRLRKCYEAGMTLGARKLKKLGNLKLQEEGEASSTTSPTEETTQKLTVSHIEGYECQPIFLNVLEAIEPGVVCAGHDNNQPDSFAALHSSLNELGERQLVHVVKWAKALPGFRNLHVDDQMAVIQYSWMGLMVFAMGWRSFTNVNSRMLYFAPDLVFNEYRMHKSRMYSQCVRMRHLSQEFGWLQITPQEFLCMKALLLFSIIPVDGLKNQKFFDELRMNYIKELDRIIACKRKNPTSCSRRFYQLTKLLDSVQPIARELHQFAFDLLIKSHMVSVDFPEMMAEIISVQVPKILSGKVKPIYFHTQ
Protocol: Degradation of Androgen Receptor dual T878A/L702H mutant protein in human MDA PCa 2b (ATCC, #CRL-2422) cells treated with PROTACs was quantified using the HTRF Human Androgen Receptor Detection Kit (PerkinElmer, #64ANDRPEH) in 384 well assay plate format. 10 mM DMSO(Sigma-Aldrich, #472301) stock solutions of PROTACs were prepared and diluted across an 11 concentration, 3-fold increment range, and 25 nL dispensed into a white opaque bottomed 384 well assay plate (Thermofisher, #164610) using an acoustic ECHO dispenser (Labcyte). Cells were cultured in growth medium (BRFF-HPC-1 (Athena ES, #0403) supplemented with 20% FBS (Gibco, #10099-141), penicillin 50 U/mL and streptomycin 50 ug/mL (Gibco, #15140-122)) in collagen I or poly-D-lysine coated T175 flasks (Corning, #356487 or #356539, respectively). For the assay, cells were harvested from the flask, centrifuged at 200 g for 5 min and then resuspended in the growth medium. 25 μl of cell suspension containing 10,000 cells was dispensed into each well of the assay plate containing the test compounds, which was then incubated for 18 h at 37° C./5% CO2. Control wells were included on each assay plate, with assay medium without cells being the no AR remaining 100% effect control, and cells treated with DMSO vehicle only, without PROTAC, the 0% effect control. After 18 h incubation 8 μl of supplemented lysis buffer from HTRF kit was added to each well and the plate shaken at 500 rpm for 1 h at room temperature. 8 μl of antibody mix in Detection buffer from HTRF kit was added to each well and the plate was incubated for 2 h in dark at room temperature. The fluorescence was measured at both 620 nm and 665 nm using an excitation wavelength of 337 nm with a PHERAstar microplate reader (BMG Labtech) and the % AR protein remaining in each well was calculated by normalising the HTRF ratio (665 nm signal/620 nm signal) value to the control wells mentioned above. Parameters corresponding to the potency and efficacy estimates of the PROTACs were obtained from these normalised values using curve fitting software (IDBS ActivityBase). These included the DC50 and the Dmax estimates. Two versions of the DC50, called relative DC50 and absolute DC50, were typically generated. These are the inflection point of a fitted 4 parameter sigmoidal response curve and the interpolated concentration of PROTAC corresponding to 50% of the protein being degraded, respectively. The Dmax parameter was the maximum experimentally observed degradation and the asymptote max parameter the fitted response curve asymptote maximum.

Androgen Receptor = molecular target: T2, Androgen Receptor (Homo sapiens, UniProt P10275, T878A); assay: Androgen Receptor Degradation Assay (Nano-Glo HiBiT); assay type: cell-based; conditions: HiBiT-tagged AR in human LnCaP cells, 18 h
T2 construct: the AR gene was modified, using CRISPR/Cas9 editing, so the expressed AR protein included an 11 amino acid HiBiT tag; endogenous in cells; host or cells: clonal LnCaP-derived line, AR gene edited by CRISPR/Cas9
Summary of the method: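 LnCaP cells with CRISPR-knocked-in N-terminal HiBiT-tagged AR (10,000/well) treated 18 h at 37 °C with PROTACs over 11 threefold concentrations; lytic HiBiT luminescence normalised to DMSO (0%) and cell-free (100%) controls. Relative DC50 = 4-parameter fit inflection; absolute DC50 = 50% degradation interpolation; Dmax = maximum observed degradation.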

T2 sequence (P10275 whole entry T878A): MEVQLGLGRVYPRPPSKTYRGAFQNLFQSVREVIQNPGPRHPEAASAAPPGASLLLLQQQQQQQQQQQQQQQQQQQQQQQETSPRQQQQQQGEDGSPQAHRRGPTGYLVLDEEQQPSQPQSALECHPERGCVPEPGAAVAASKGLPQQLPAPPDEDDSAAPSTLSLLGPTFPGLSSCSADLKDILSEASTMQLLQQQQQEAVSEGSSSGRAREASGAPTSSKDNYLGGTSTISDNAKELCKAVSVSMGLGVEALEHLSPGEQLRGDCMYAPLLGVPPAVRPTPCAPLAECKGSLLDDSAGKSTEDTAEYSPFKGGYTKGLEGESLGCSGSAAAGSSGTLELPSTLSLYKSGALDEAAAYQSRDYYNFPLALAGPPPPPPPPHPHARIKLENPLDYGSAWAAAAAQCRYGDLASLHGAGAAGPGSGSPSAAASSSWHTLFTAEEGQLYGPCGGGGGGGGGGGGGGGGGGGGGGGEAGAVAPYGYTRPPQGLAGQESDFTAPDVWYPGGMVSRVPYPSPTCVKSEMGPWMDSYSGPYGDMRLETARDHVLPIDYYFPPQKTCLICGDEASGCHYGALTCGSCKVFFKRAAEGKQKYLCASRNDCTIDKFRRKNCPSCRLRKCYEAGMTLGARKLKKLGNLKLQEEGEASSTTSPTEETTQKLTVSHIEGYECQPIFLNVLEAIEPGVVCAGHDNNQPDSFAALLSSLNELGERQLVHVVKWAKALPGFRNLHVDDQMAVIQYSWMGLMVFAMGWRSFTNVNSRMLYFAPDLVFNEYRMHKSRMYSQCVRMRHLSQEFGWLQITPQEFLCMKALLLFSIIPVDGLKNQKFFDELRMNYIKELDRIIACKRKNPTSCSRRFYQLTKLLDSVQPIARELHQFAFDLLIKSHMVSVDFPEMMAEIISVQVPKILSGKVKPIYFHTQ
T2 sequence (Q96SW2 whole entry partner): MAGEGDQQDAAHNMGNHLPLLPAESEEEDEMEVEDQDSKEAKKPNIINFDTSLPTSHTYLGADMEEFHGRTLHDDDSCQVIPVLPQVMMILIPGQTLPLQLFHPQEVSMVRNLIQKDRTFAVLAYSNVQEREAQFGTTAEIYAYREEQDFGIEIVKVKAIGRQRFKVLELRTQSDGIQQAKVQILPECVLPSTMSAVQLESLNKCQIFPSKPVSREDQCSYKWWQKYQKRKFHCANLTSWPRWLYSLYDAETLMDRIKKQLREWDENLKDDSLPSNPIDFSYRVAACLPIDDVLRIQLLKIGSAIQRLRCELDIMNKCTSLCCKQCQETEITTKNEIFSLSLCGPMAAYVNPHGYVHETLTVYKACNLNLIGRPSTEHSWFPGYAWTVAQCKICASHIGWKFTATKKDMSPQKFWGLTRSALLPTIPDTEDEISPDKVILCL
T2 sequence (Q16531 whole entry partner): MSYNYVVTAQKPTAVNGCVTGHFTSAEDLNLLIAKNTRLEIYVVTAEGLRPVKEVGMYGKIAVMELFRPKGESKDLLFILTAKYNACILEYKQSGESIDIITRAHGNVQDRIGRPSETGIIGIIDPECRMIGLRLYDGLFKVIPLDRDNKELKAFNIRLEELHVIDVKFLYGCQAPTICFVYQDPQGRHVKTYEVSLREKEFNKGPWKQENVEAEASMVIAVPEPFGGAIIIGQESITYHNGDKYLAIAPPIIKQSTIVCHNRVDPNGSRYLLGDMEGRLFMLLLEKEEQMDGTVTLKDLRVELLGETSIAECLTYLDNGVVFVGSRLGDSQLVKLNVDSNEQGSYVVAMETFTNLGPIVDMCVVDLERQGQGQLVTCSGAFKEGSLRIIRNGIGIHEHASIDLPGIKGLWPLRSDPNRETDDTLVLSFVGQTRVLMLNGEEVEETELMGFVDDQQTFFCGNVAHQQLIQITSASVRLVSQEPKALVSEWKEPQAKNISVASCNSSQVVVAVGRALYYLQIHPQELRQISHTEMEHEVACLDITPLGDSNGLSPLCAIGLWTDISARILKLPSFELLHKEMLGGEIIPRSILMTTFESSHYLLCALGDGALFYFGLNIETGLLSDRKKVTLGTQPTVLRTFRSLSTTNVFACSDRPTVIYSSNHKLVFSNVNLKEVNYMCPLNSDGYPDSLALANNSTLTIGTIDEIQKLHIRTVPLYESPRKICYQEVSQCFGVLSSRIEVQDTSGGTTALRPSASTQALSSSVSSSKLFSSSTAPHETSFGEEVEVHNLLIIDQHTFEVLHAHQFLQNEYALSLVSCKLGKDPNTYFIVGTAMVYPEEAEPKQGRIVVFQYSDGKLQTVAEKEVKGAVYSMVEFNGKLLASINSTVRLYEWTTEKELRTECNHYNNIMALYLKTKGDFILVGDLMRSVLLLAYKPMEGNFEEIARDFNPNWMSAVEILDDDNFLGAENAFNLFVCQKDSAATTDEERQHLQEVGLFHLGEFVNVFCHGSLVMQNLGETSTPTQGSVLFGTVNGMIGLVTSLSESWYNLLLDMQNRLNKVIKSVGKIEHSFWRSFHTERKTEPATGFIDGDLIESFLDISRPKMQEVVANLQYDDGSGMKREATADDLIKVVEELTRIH

SMILES | mean relative pDC50 [1] | mean relative pDC50 (Androgen Receptor) | also measured
CC1(C)[C@H](NC(=O)c2cnc(N3CCC(CN4CCC(n5ccc6c(N7CCC(=O)NC7=O)cncc65)CC4)CC3)cn2)C(C)(C)[C@H]1Oc1ccc(C#N)c(Cl)c1 [AR14, N-((1r,3r)-3-(3-Chloro-4-cyanophenoxy)-2,2,4,4-tetramethylcyclobutyl)-5-(4-((4-(4-(2,4-dioxotetrahydropyrimidin-1(2H)-yl)-1H-pyrrolo[2,3-c]pyridin-1-yl)piperidin-1-yl)methyl)piperidin-1-yl)pyrazine-2-carboxamide] | ≥ 6.5 | – | –
CC1(C)[C@H](NC(=O)c2ccc(N3CCC(CN4CCC(n5ncc6c(N7CCC(=O)NC7=O)cccc65)CC4)CC3)nn2)C(C)(C)[C@H]1Oc1ccc(C#N)c2ncccc12 [AR246, N-((1r,3r)-3-((8-Cyanoquinolin-5-yl)oxy)-2,2,4,4-tetramethylcyclobutyl)-6-(4-((4-(4-(2,4-dioxotetrahydropyrimidin-1(2H)-yl)-1H-indazol-1-yl)piperidin-1-yl)methyl)piperidin-1-yl)pyridazine-3-carboxamide] | ≥ 6.5 | – | –
CC1(C)[C@H](NC(=O)c2cnc(N3CCC(CN4CCC(n5ncc6c(N7CCC(=O)NC7=O)cccc65)CC4)CC3)cn2)C(C)(C)[C@H]1Oc1ccc(C#N)c(Cl)c1.Cl [EAR37, N-((1r,3r)-3-(3-Chloro-4-cyanophenoxy)-2,2,4,4-tetramethylcyclobutyl)-5-(4-((4-(4-(2,4-dioxotetrahydropyrimidin-1(2H)-yl)-1H-indazol-1-yl)piperidin-1-yl)methyl)piperidin-1-yl)pyrazine-2-carboxamide hydrochloride] | ≥ 6.5 | – | mean asymptote max (Androgen Receptor; hydrochloride): > 70%
CC1(C)[C@H](NC(=O)c2ccc(CCCCCCN3CCC(n4ccc5c(N6CCC(=O)NC6=O)cccc54)CC3)cc2)C(C)(C)[C@H]1Oc1ccc(C#N)c(C(F)(F)F)c1 [EAR75, N-((1r,3r)-3-(4-Cyano-3-(trifluoromethyl)phenoxy)-2,2,4,4-tetramethylcyclobutyl)-4-(6-(4-(4-(2,4-dioxotetrahydropyrimidin-1(2H)-yl)-1H-indol-1-yl)piperidin-1-yl)hexyl)benzamide] | ≥ 6.5 | ≥ 6.0 | mean asymptote max (Androgen Receptor): > 70%
CC1(C)[C@H](NC(=O)c2ccc(N3CCC(CN4CCC(n5ccc6c(N7CCC(=O)NC7=O)nccc65)CC4)CC3)nn2)C(C)(C)[C@H]1Oc1ccc(C#N)c2ncccc12.Cl [EAR251, N-((1r,3r)-3-((8-Cyanoquinolin-5-yl)oxy)-2,2,4,4-tetramethylcyclobutyl)-6-(4-((4-(4-(2,4-dioxotetrahydropyrimidin-1(2H)-yl)-1H-pyrrolo[3,2-c]pyridin-1-yl)piperidin-1-yl)methyl)piperidin-1-yl)pyridazine-3-carboxamide hydrochloride] | ≥ 6.5 | – | mean relative pDC50 (Androgen Receptor; hydrochloride): ≥ 8.0
CC1(C)[C@H](NC(=O)c2cnc(N3CCC(CN4CCC(n5ncc6c(N7CCC(=O)NC7=O)cccc65)CC4)CC3)nc2)C(C)(C)[C@H]1Oc1cnc(C#N)c(Cl)c1 [EAR253, N-((1r,3r)-3-((5-Chloro-6-cyanopyridin-3-yl)oxy)-2,2,4,4-tetramethylcyclobutyl)-2-(4-((4-(4-(2,4-dioxotetrahydropyrimidin-1(2H)-yl)-1H-indazol-1-yl)piperidin-1-yl)methyl)piperidin-1-yl)pyrimidine-5-carboxamide hydrochloride] | ≥ 6.5 | – | mean relative pDC50 (Androgen Receptor; hydrochloride): ≥ 8.0
CC1(C)[C@H](NC(=O)c2ccc(N3CCC(CN4CCC(n5ccc6c(N7CCC(=O)NC7=O)nccc65)CC4)CC3)nc2)C(C)(C)[C@H]1Oc1cnc(C#N)c(Cl)c1 [EAR259, N-((1r,3r)-3-((5-Chloro-6-cyanopyridin-3-yl)oxy)-2,2,4,4-tetramethylcyclobutyl)-6-(4-((4-(4-(2,4-dioxotetrahydropyrimidin-1(2H)-yl)-1H-pyrrolo[3,2-c]pyridin-1-yl)piperidin-1-yl)methyl)piperidin-1-yl)nicotinamide] | – | ≥ 8.0 | –
CC1(C)[C@H](NC(=O)c2ncc(N3CCC(CN4CCC(n5ccc6c(N7CCC(=O)NC7=O)ccnc65)CC4)CC3)cn2)C(C)(C)[C@H]1Oc1cnc(C#N)c(Cl)c1 [EAR269, N-((1r,3r)-3-((5-Chloro-6-cyanopyridin-3-yl)oxy)-2,2,4,4-tetramethylcyclobutyl)-5-(4-((4-(4-(2,4-dioxotetrahydropyrimidin-1(2H)-yl)-1H-pyrrolo[2,3-b]pyridin-1-yl)piperidin-1-yl)methyl)piperidin-1-yl)pyrimidine-2-carboxamide] | – | ≥ 6.0 | –
CC1(C)[C@H](NC(=O)c2ncc(N3CCC(CN4CCC(n5ncc6c(N7CCC(=O)NC7=O)cccc65)CC4)CC3)cn2)C(C)(C)[C@H]1Oc1cnc(C#N)c(C(F)(F)F)c1 [EAR270, N-((1r,3r)-3-((6-Cyano-5-(trifluoromethyl)pyridin-3-yl)oxy)-2,2,4,4-tetramethylcyclobutyl)-5-(4-((4-(4-(2,4-dioxotetrahydropyrimidin-1(2H)-yl)-1H-indazol-1-yl)piperidin-1-yl)methyl)piperidin-1-yl)pyrimidine-2-carboxamide] | – | ≥ 6.0 | –
CC1(C)[C@H](NC(=O)c2ncc(N3CCC(CN4CCC(n5ncc6c(N7CCC(=O)NC7=O)ccnc65)CC4)CC3)cn2)C(C)(C)[C@H]1Oc1ccc(C#N)c(Cl)c1 [EAR272, N-((1r,3r)-3-(3-Chloro-4-cyanophenoxy)-2,2,4,4-tetramethylcyclobutyl)-5-(4-((4-(4-(2,4-dioxotetrahydropyrimidin-1(2H)-yl)-1H-pyrazolo[3,4-b]pyridin-1-yl)piperidin-1-yl)methyl)piperidin-1-yl)pyrimidine-2-carboxamide] | – | ≥ 6.0 | –
CC1(C)[C@H](NC(=O)c2ncc(N3CCC(CN4CCC(n5ncc6c(N7CCC(=O)NC7=O)nccc65)CC4)CC3)cn2)C(C)(C)[C@H]1Oc1ccc(C#N)c(Cl)c1 [EAR273, N-((1r,3r)-3-(3-Chloro-4-cyanophenoxy)-2,2,4,4-tetramethylcyclobutyl)-5-(4-((4-(4-(2,4-dioxotetrahydropyrimidin-1(2H)-yl)-1H-pyrazolo[4,3-c]pyridin-1-yl)piperidin-1-yl)methyl)piperidin-1-yl)pyrimidine-2-carboxamide] | – | – | mean asymptote max (Androgen Receptor): > 70%
